The results in this text go back to the RNAGym collection of RNA variant scans (doi:10.1093/nar/gkz1192).

The source gives no read counts; variants with many changes may rest on few reads.

To fix the notation:
B1: CPEB3 Ribozyme (parent)
chain: UAACAGGGGGCCACAGCAGAAGCGUUCACGUCGCAGCCCCUGUCAGAUUCUGGUGAAUCUGCGAAUUCUGCUGUAUAUCUC

This data set covers variants of B1. The data set is described as follows: self-cleavage, relative activity (ratio to wild type); higher = more cleavage; in vitro, sequencing. Put shortly: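 CPEB3 self-cleaving ribozyme mutant libraries were made by rounds of error-prone PCR, barcoded, and transcribed in vitro with T7 RNA polymerase for 5 hours at 37°C. Cleavage occurred during transcription and a 15 min DNase I step before EDTA stop. RNAs were reverse transcribed with template switching and Illumina-sequenced, with DNA sequencing mapping barcodes to variants. Relative activity is the variant's cleaved/total read fraction divided by wild type's (minimum 5 reads), averaged across three batches.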
Consider A20G A21G A28U U60A A75C, for which the self-cleavage came out at 0.37.

Regarding A20G A35U A45G, the self-cleavage was found to be 0.29. The figure for G19U U67A U69A is 0.18. The figure for A20G A35U C59G is 0.05; for A20C U72A A75G it is 0.33; for A20G A21C A56G it is 0.26. The value for A20C U25C C50A was 0.36; that for A20C U31C U43C U51A was 0.12.

With G19U C44A A45G, the self-cleavage is 0.07. The figure for A20G A28G C34U is 0.15; for G19U A35U U43A U48C U72C it is 0.26.

On to G19U G24U U58C U60C U66C, for which the self-cleavage turned out to be 0.04. A20G A21G U43A A57U U69A U80C: the self-cleavage was found to be 0.12. The figure for G19U U41C U43A A47C U51A is 0.09. On to A20G A35U U41C U72C, for which the self-cleavage is 0.59. The figure for G19A U41C U48C U51C is 0.14. As for A20C A35G U41G A45G, the self-cleavage was found to be 0.44.

A20G A21U A47U A75U: the self-cleavage was 0.24. The value for A20C C27U A47G U49A U51A A56U was 0.21; that for A20G A35U U43C U49C was 0.33.

Consider G19C U31A G36A A56G U67C U78C, for which the self-cleavage is 0.05.

As to A20G A21G U66C U72A, the self-cleavage was found to be 0.58.

Consider A20G A21G A35C, for which the self-cleavage was 0.07.

Turning to G19C U41C U72C, the self-cleavage amounted to 0.37. The figure for A20G A35G A47G U67C is 1.28; for G19U G55U A57U A65G it is 0.1; for G19U U31C A45G it is 0.21.

A20G A21U U41C U43A A45U U48C: the self-cleavage stood at 0.47. With A20C U78A U80A, the self-cleavage came to 0.39. The figure for G19A U60C G61C U80C C81U is 0.05; for G19U A20G U41A it is 0.25. The value for A20G A21G U60A A65G U78C was 0.12; that for A20C U25C G46U A65G was 0.05. The value for A20G A35G U41C was 1.21; that for G19U U25C A28C A35G U60A was 0.15. G19U U58C A64G: the self-cleavage worked out at 0.14. The figure for G19C U41A A65G U74A is 0.14; for G19C A21G U54C A56C G73U U78C it is 0.04; for G19C G70U U80C it is 0.16. The value for A20C U31C U41A U48A U74A was 0.22. The value for G19U U43C A47G U48A U80C was 0.04; that for A20G A35G U41A A56U A57G G73C was 0.11; that for A20G A35G U74A A75G was 1. Take G19U A20U A47U A65G: the self-cleavage amounted to 0.12. As for G19A U43C G46U A64G U78C, the self-cleavage amounted to 0.17.

Consider A20G A21G U41C U48C U76C, for which the self-cleavage was determined as 0.14.

In the case of A20G A35U C38U A45C A56G U60A, the self-cleavage stood at 0.13.

Consider A20G A21G U26A A56G A57G, for which the self-cleavage was 0.11. The figure for A20G A35G A75U is 1.21; for G19C U25C U78C it is 0.26; for A20G A21G G22C it is 0.25. The value for A20C U66C U67C was 0.43; that for G19C A28G U49C G53U was 0.13. The value for G19A U26C A28G A45G G46U U78A was 0.08. In the case of A20G A21U U26C U41A U43A A65G, the self-cleavage was 0.09.

Regarding A20C C38G A47G U67C G70U, the self-cleavage was 0.33. The figure for A20G A28G U78A is 0.33; for A20G A21G U54C U74C it is 0.53.

G19U U25C C38G U49C U58C C62G A64G: the self-cleavage was 0.07.

Take A20C U48C U54C U67C: the self-cleavage amounted to 0.11. The figure for G19C A20G C40U U51C U72C U76C is 0.13; for G19U U51A U60A it is 0.11.

A20G A28G U31C A57G: the self-cleavage was 0.38. The figure for G19C G36A U41G A45G A56G U58C U80A is 0.05. For A20G A28G A35G C44A A57G U60A, the self-cleavage stood at 0.04. The figure for A20G A35G U51C U58A A77G is 0.37; for A20G A35G U58C C62U it is 0.33; for G19C U41G A45G it is 0.22. The figure for G19U U41C U58G U60A U78G is 0.1; for A20G A28G U31A A45G G46A U80C it is 0.18. The figure for A20G A28G C44U is 0.42; for G19U G30A U43A G53C A57G it is 0.19. With G19U A20U A35G U49C, the self-cleavage came to 0.27. The figure for A20G A28U U66C is 0.29; for G19C U60A U69C U80C it is 0.24; for A20G A21G U25C U60A it is 0.38. The figure for A20C U41C G42A is 0.07; for A20C U25C A28G U69C A77U it is 0.14. Consider A20G A21G U25C U78C, for which the self-cleavage stood at 0.38.

As for G19U C40A U41C U49C U58C, the self-cleavage was determined as 0.1. The figure for A20G A21G C27A U51C is 0.27; for G19U A20U U25C C39A A64U it is 0.18. The value for A20G A35U G42A A56U A77C was 0.14.

With A20G A35U U41C U43A U72G A77G U80A, the self-cleavage amounted to 0.18. The value for A20G A28G G70A was 0.32. The value for G19U A28U U51A U78A was 0.12.

In the case of G19U A20G C27U A35U C62U A65G U69A, the self-cleavage was 0.03.

On to A20G A21U U43A A64U, for which the self-cleavage amounted to 0.31. Regarding A20G A21G U41C U72A, the self-cleavage was 0.24. The value for G19U A56G A57G G73A was 0.1; that for A20G A28G U41A U48C was 0.05; that for A20C A35G U54C U72A was 0.33. As for A20G A21G U41C, the self-cleavage is 0.5. The figure for A20G A21G A64U C79A is 0.05; for G19A U51A U78C it is 0.34. The figure for G19A U26C C50A G61A U67C U74A is 0.1; for G19U U41A C50A A65U it is 0.07; for G19A U26A G42A U43C U51C it is 0.06. As to A20G A21G A28G, the self-cleavage came out at 0. G19C C27U A47G A64G: the self-cleavage came to 0.22. The value for A20C A35U U54C was 0.29. In the case of A20G A35U A47G, the self-cleavage came out at 0.35. The value for A20G A35U A47U was 0.09. For A20G A28G U43A U66C U67C U69A U74C, the self-cleavage is 0.1.

A20G A21G U58A U67G U69C: the self-cleavage was determined as 0.05.

For the variant G19C U31A G63U U78C U80C, the self-cleavage stood at 0.16. As for A20G A35G A56G, the self-cleavage came out at 1.17. The figure for A20G A21G U43C U60C is 0.26; for G19A U43A U49A U72G A77G it is 0.24. The figure for A20G A28G U54C U60C U72A is 0.1; for A20G A35U U41C G46A A77U it is 0.45; for G19U A56G A57G it is 0.17. The figure for G19A U25C C38A U43C A56G A75U U78C is 0.04. Turning to G19C U25A A35C U58C U72C, the self-cleavage was 0.17. For the variant A20G A28U U31A U67C, the self-cleavage stood at 0.42. Consider G19U U26A G61C G73C, for which the self-cleavage was found to be 0.23. The figure for G19A U25C G42A C50A is 0.16. The figure for G19U U51A U66C is 0.28. The value for A20G A35G U41A A75G was 0.23; that for A20G A21G U67A was 0.38; that for G19U A35U G53C A57G was 0.06. In the case of A20C G30C A64G A65C U69A U72C, the self-cleavage stood at 0.05. As for G19U C27A A45G, the self-cleavage amounted to 0.07.

In the case of G19U A45G U49C U74A, the self-cleavage was determined as 0.15. Regarding A20G A21G A57G C71G, the self-cleavage came to 0.16.

G19U U43C U48C U66C: the self-cleavage was found to be 0.14.

For A20G A21U U26C C29A U41A U54A A64G, the self-cleavage turned out to be 0.13. The value for A20G A21G G63C U78C was 0.3.

On to A20G A21G U25C C50A U69C, for which the self-cleavage came to 0.34. For the variant A20G A28G U72C, the self-cleavage was determined as 0.41. The figure for G19A U26C U41G A65G A77C is 0.11. The figure for G19C G24A U41C A64G is 0.06; for A20G A35G A57G it is 1.24; for A20G A21G U51A it is 0.34. The figure for A20G A21G U51C is 0.38; for A20G A28G U43G G46U U69C it is 0.16; for A20G A35G U48C U66C U72C it is 0.35.

Take G19U G33A U49C U69A: the self-cleavage was determined as 0.06. The value for G19C U43C A45G U60A U66A was 0.15; that for A20C U51A U78C was 1.1; that for A20C C29U U31C U48C was 0.08. The figure for A20G A21G A28C U74C is 0.44. The value for G19U U25A U51A A64U A75U was 0.1; that for A20C U26C U60A U72C was 0.3. For the variant A20G A28U U31A U43C U58A U78C, the self-cleavage turned out to be 0.06. For the variant A20C U48C G63U U72A, the self-cleavage amounted to 0.06.

On to G19C U25C U60A, for which the self-cleavage came to 0.06. In the case of G19A U25G U31G A65G U67C U80C, the self-cleavage worked out at 0.05. Consider A20C C29G A65G, for which the self-cleavage was 0.08.

In the case of G19U U25C A56U U72C, the self-cleavage came to 0.14.

G19A U48C U49A U80C: the self-cleavage came to 0.19. The value for G19A U31A U66A was 0.11; that for G19U U31C U72A A77U U80C was 0.23; that for A20C U49C A64G A75G was 0.12. The value for G19A U31C U60C was 0.34; that for G19C U41G A45G A56U was 0.23; that for A20G A21C A77G was 0.38. Take A20G A28G G46U: the self-cleavage came to 0.19. The figure for A20G A21G A35G A64U U69C A77C is 0.05; for A20C A35G A64U it is 0.24; for G19C U51A U58C it is 0.21. The figure for G19C A28G A47G A64G is 0.23. Take G19U U76A U78C: the self-cleavage came out at 0.13. The value for G19C A57G A65G was 0.25; that for A20G A28U C32A G55C was 0.22.

With G19U U43C U54C U69A, the self-cleavage was found to be 0.09. Regarding G19U U60A A65G U76C, the self-cleavage is 0.08.
